The source of these data is article PMC6633398.

Sequences of proteins named here, by UniProt entry; tags and fusion partners are left off. A change or cut given only in a name is not applied to a line headed by its entry.
UniProt O43681: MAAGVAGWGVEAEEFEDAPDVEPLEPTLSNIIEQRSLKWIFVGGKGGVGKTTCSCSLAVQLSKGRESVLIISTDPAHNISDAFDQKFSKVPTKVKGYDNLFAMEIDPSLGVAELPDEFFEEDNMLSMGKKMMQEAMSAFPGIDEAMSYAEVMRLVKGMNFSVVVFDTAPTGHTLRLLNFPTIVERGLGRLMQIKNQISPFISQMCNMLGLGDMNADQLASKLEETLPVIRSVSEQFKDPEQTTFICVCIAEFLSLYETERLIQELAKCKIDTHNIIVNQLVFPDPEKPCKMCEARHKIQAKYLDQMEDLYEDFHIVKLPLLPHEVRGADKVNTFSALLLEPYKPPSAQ

The chains are these.
B1: MOSPD2 (protein, UniProt Q8NHP6 1-518)
chain: MAENHAQNKAKLISETRRRFEAEYVTDKSDKYDARDVERLQQDDNWVESYLSWRHNIVDETLKMLDESFQWRKEISVNDLNESSIPRWLLEIGVIYLHGYDKEGNKLFWIRVKYHVKDQKTILDKKKLIAFWLERYAKRENGKPVTVMFDLSETGINSIDMDFVRFIINCFKVYYPKYLSKIVIFDMPWLMNAAFKIVKTWLGPEAVSLLKFTSKNEVQDYVSVEYLPPHMGGTDPFKYSYPPLVDDDFQTPLCENGPITSEDETSSKEDIESDGKETLETISNEEQTPLLKKINPTESTSKAEENEKVDSKVKAFKKPLSVFKGPLLHISPAEELYFGSTESGEKKTLIVLTNVTKNIVAFKVRTTAPEKYRVKPSNSSCDPGASVDIVVSPHGGLTVSAQDRFLIMAAEMEQSSGTGPAELTQFWKEVPRNKVMEHRLRCHTVESSKPNTLTLKDNAFNMSDKTSEDICLQLSRLLESNRKLEDQVQRCIWFQQLLLSLTMLLLAFVTSFFYLLYS
B2: Stx18 (protein, UniProt Q9P2W9 1-335)
chain: MAVDITLLFRASVKTVKTRNKALGVAVGGGVDGSRDELFRRSPRPKGDFSSRAREVISHIGKLRDFLLEHRKDYINAYSHTMSEYGRMTDTERDQIDQDAQIFMRTCSEAIQQLRTEAHKEIHSQQVKEHRTAVLDFIEDYLKRVCKLYSEQRAIRVKRVVDKKRLSKLEPEPNTKTRESTSSEKVSQSPSKDSEENPATEERPEKILAETQPELGTWGDGKGEDELSPEEIQMFEQENQRLIGEMNSLFDEVRQIEGRVVEISRLQEIFTEKVLQQEAEIDSIHQLVVGATENIKEGNEDIREAIKNNAGFRVWILFFLVMCSFSLLFLDWYDS
B3: nesprin SYNE3 (protein, UniProt Q6ZMZ3 1-975)
chain: MTQQPQDDFDRSVEDAQAWMKAVQDQLQVNDNTQGPRAALEARLWETEKICQLEPEGRVRVDLVLRMAEALLACCPGDQKPGILARLKDIKAQWEETVTYMTHCHSRIEWVWLHWSEYLLARDEFYRWFQKMMVTLEPHIELQLGLKEKQWQLSHAQVLLHNVDNQAVLLDRLLEEAASLFNRIGDPSVDEDAQKRMKAEYDAVKAKAQKRVDLLEQVAREHEEYQAGVDEFQLWLKAVVEKVNGCLGRNCKLPITQRLSTLQDIAKDFPRGEESLETLEEQSAGVIRNTSPLGAEKITGELEEMRKVLEKLRALWEEEEERLRGLLRSRGAWEQQIKQLEAELSEFRMVLQRLAQEGLQPAAKAGTEDELVAHWRRYSATRAALASEEPRVDRLQAQLKELIVFPHNLKPLSDSVIATIQEYQSLKVKSARLRNAAAVELWQHFQRPLQDLQLWKALAQRLLEVTASLPDLPSLHTFLPQIEAALMESSRLKELLTMLQLKKDLLIGIFGQERATALLEQVAGSMRDRDLLHNSLLQRKSKLQSLLAQHKDFGAAFEPLQRKLLDLQVRVQAEKGLQRDLPGKQAQLSRLQGLQEEGLDLGAQMEAARPLVQENPNHQHKMDQLSSDFQALQRSLEDLVDRCRQSVQEHCTFSHQLLELRQWIVVTTQKLEAHRGEAGPGDAESQEAEFERLVAEFPEKEAQLSLVEAQGWLVMEKSSPEGAAVVQEELRELAESWRALRLLEESLLSLIRNWHLQRMEVDSGKKMVFTNNIPKSGFLINPMDPIPRHRRRANLLQEEEGSHEDFSQLLRNFGQWLQVENSKLVRIIAMRTSTAEDLRTRKSKLQELEARVPEGQHLFENLLRLGPARGTSDELEDLRYQWMLYKSKLKDSGHLLTQSSPGEPTGFQKTRRWRGLGSLFRRACCVALPLQLLLLLFLLLLFLLPIREEDRSCTLANNFARSFTLMLRYNGPPPT
B4: GOSR2 (protein, UniProt O14653 1-212)
chain: MDPLFQQTHKQVHEIQSCMGRLETADKQSVHIVENEIQASIDQIFSRLERLEILSSKEPPNKRQNARLRVDQLKYDVQHLQTALRNFQHRRHAREQQERQREELLSRTFTTNDSDTTIPMDESLQFNSSLQKVHNGMDDLILDGHNILDGLRTQRLTLKGTQKKILDIANMLGLSNTVMRLIEKRAFQDKYFMIGGMLLTCVVMFLVVQYLT
B5: syntaxin Stx5 (protein, UniProt Q13190 1-355)
chain: MIPRKRYGSKNTDQGVYLGLSKTQVLSPATAGSSSSDIAPLPPPVTLVPPPPDTMSCRDRTQEFLSACKSLQTRQNGIQTNKPALRAVRQRSEFTLMAKRIGKDLSNTFAKLEKLTILAKRKSLFDDKAVEIEELTYIIKQDINSLNKQIAQLQDFVRAKGSQSGRHLQTHSNTIVVSLQSKLASMSNDFKSVLEVRTENLKQQRSRREQFSRAPVSALPLAPNHLGGGAVVLGAESHASKDVAIDMMDSRTSQQLQLIDEQDSYIQSRADTMQNIESTIVELGSIFQQLAHMVKEQEETIQRIDENVLGAQLDVEAAHSEILKYFQSVTSNRWLMVKIFLILIVFFIIFVVFLA
B6: LAP2B (protein, UniProt P42167 1-454)
chain: MPEFLEDPSVLTKDKLKSELVANNVTLPAGEQRKDVYVQLYLQHLTARNRPPLPAGTNSKGPPDFSSDEEREPTPVLGSGAAAAGRSRAAVGRKATKKTDKPRQEDKDDLDVTELTNEDLLDQLVKYGVNPGPIVGTTRKLYEKKLLKLREQGTESRSSTPLPTISSSAENTRQNGSNDSDRYSDNEEDSKIELKLEKREPLKGRAKTPVTLKQRRVEHNQSYSQAGITETEWTSGSSKGGPLQALTRESTRGSRRTPRKRVETSEHFRIDGPVISESTPIAETIMASSNESLVVNRVTGNFKHASPILPITEFSDIPRRAPKKPLTRAEVGEKTEERRVERDILKEMFPYEASTPTGISASCRRPIKGAAGRPLELSDFRMEESFSSKYVPKYVPLADVKSEKTKKGRSIPVWIKILLFVVVAVFLFLVYQAMETNQVNPFSNFLHVDPRKSN
B7: ZFPL1 (protein, UniProt O95159 1-310)
chain: MGLCKCPKRKVTNLFCFEHRVNVCEHCLVANHAKCIVQSYLQWLQDSDYNPNCRLCNIPLASRETTRLVCYDLFHWACLNERAAQLPRNTAPAGYQCPSCNGPIFPPTNLAGPVASALREKLATVNWARAGLGLPLIDEVVSPEPEPLNTSDFSDWSSFNASSTPGPEEVDSASAAPAFYSQAPRPPASPGRPEQHTVIHMGNPEPLTHAPRKVYDTRDDDRTPGLHGDCDDDKYRRRPALGWLARLLRSRAGSRKRPLTLLQRAGLLLLLGLLGFLALLALMSRLGRAAADSDPNLDPLMNPHIRVGPS
B8: UBE2J1 (protein, UniProt Q9Y385 1-318)
chain: METRYNLKSPAVKRLMKEAAELKDPTDHYHAQPLEDNLFEWHFTVRGPPDSDFDGGVYHGRIVLPPEYPMKPPSIILLTANGRFEVGKKICLSISGHHPETWQPSWSIRTALLAIIGFMPTKGEGAIGSLDYTPEERRALAKKSQDFCCEGCGSAMKDVLLPLKSGSDSSQADQEAKELARQISFKAEVNSSGKTISESDLNHSFSLTDLQDDIPTTFQGATASTSYGLQNSSAASFHQPTQPVAKNTSMSPRQRRAQQQSQRRLSTSPDVIQGHQPRDNHTDHGGSAVLIVILTLALAALIFRRIYLANEYIFDFEL
B9: syntaxin Stx6 (protein, UniProt O43752 1-255)
chain: MSMEDPFFVVKGEVQKAVNTAQGLFQRWTELLQDPSTATREEIDWTTNELRNNLRSIEWDLEDLDETISIVEANPRKFNLDATELSIRKAFITSTRQVVRDMKDQMSTSSVQALAERKNRQALLGDSGSQNWSTGTTDKYGRLDRELQRANSHFIEEQQAQQQLIVEQQDEQLELVSGSIGVLKNMSQRIGGELEEQAVMLEDFSHELESTQSRLDNVMKKLAKVSHMTSDRRQWCAIAILFAVLLVVLILFLVL
B10: Stx8 (protein, UniProt Q9UNK0 1-236)
chain: MAPDPWFSTYDSTCQIAQEIAEKIQQRNQYERKGEKAPKLTVTIRALLQNLKEKIALLKDLLLRAVSTHQITQLEGDRRQNLLDDLVTRERLLLASFKNEGAEPDLIRSSLMSEEAKRGAPNPWLFEEPEETRGLGFDEIRQQQQKIIQEQDAGLDALSSIISRQKQMGQEIGNELDEQNEIIDDLANLVENTDEKLRNETRRVNMVDRKSASCGMIMVILLLLVAIVVVAVWPTN
B11: golgin-84 (also known as GOLGA5) (protein, UniProt Q8TBA6 1-731)
chain: MSWFVDLAGKAEDLLNRVDQGAATALSRKDNASNIYSKNTDYTELHQQNTDLIYQTGPKSTYISSAADNIRNQKATILAGTANVKVGSRTPVEASHPVENASVPRPSSHFVRRKKSEPDDELLFDFLNSSQKEPTGRVEIRKEKGKTPVFQSSQTSSVSSVNPSVTTIKTIEENSFGSQTHEAASNSDSSHEGQEESSKENVSSNAACPDHTPTPNDDGKSHELSNLRLENQLLRNEVQSLNQEMASLLQRSKETQEELNKARARVEKWNADHSKSDRMTRGLRAQVDDLTEAVAAKDSQLAVLKVRLQEADQLLSTRTEALEALQSEKSRIMQDQSEGNSLQNQALQTFQERLHEADATLKREQESYKQMQSEFAARLNKVEMERQNLAEAITLAERKYSDEKKRVDELQQQVKLYKLNLESSKQELIDYKQKATRILQSKEKLINSLKEGSGFEGLDSSTASSMELEELRHEKEMQREEIQKLMGQIHQLRSELQDMEAQQVNEAESAREQLQDLHDQIAGQKASKQELETELERLKQEFHYIEEDLYRTKNTLQSRIKDRDEEIQKLRNQLTNKTLSNSSQSELENRLHQLTETLIQKQTMLESLSTEKNSLVFQLERLEQQMNSASGSSSNGSSINMSGIDNGEGTRLRNVPVLFNDTETNLAGMYGKVRKAASSIDQFSIRLGIFLRRYPIARVFVIIYMALLHLWVMIVLLTYTPEMHHDQPYGK
B12: PTP1B (also known as PTPN1) (protein, UniProt P18031 1-435)
chain: MEMEKEFEQIDKSGSWAAIYQDIRHEASDFPCRVAKLPKNKNRNRYRDVSPFDHSRIKLHQEDNDYINASLIKMEEAQRSYILTQGPLPNTCGHFWEMVWEQKSRGVVMLNRVMEKGSLKCAQYWPQKEEKEMIFEDTNLKLTLISEDIKSYYTVRQLELENLTTQETREILHFHYTTWPDFGVPESPASFLNFLFKVRESGSLSPEHGPVVVHCSAGIGRSGTFCLADTCLLLMDKRKDPSSVDIKKVLLEMRKFRMGLIQTADQLRFSYLAVIEGAKFIMGDSSVQDQWKELSHEDLEPPPEHIPPPPRPPKRILEPHNGKCREFFPNHQWVKEETQEDKDCPIKEEKGSPLNAAPYGIESMSQDTEVRSRVVGGSLRGAQAASPAKGEPSLPEKDEDHALSYWKPFLVNMCVATVLTAGAYLCYRFLFNSNT

No constants are given. Whether binding was seen depends on the method and setting. Binding seen in cells or lysates may run through a third protein. Some entries that bind do so weakly or less than the wild type.

The assay deals with c-Myc–TRC40_(D74E), ATPase-impaired trap mutant of TRC40 (UniProt O43681). Briefly: co-IP; c-Myc–TRC40 variants expressed in transfected HEK293 cells; precipitated with anti-c-Myc agarose from the cytosolic fraction (180,000 g, 1 h) in the absence of detergent; IP buffer 50 mM HEPES, 150 mM NaCl, 1.5 mM MgCl2, 1 mM EGTA, pH 7.4; 2.5 h; endogenous TA proteins detected by western blot.
As for B1, the binding result is “no binding”.

As to B2, the binding entry is reported as “binds”.

B3: the binding result is “no binding”.

As for B4, the binding entry was “binds”.

B5: the binding entry was “binds”.

For B6, the binding entry was “binds”.

B7: the binding result was “no binding”.

Consider B8, for which the binding result is listed as “binds”.

For B9, the binding result is recorded as “binds”.

As for B10, the binding result is listed as “binds”.

Take B11: the binding result was “binds”.

In the case of B12, the binding entry is reported as “no binding”.
